According to the supplement of paper PMC12632987:
Over roughly 1,800 sequences, “median log2 fold change of GCK-ALFA target abundance (FLAG IP / Myc IP barcode read proportion)” has its median near 0.14; the lowest 2% begin near -0.84. The list shows a part of the results.

T1: TRAF2, Q12933
T1 chain: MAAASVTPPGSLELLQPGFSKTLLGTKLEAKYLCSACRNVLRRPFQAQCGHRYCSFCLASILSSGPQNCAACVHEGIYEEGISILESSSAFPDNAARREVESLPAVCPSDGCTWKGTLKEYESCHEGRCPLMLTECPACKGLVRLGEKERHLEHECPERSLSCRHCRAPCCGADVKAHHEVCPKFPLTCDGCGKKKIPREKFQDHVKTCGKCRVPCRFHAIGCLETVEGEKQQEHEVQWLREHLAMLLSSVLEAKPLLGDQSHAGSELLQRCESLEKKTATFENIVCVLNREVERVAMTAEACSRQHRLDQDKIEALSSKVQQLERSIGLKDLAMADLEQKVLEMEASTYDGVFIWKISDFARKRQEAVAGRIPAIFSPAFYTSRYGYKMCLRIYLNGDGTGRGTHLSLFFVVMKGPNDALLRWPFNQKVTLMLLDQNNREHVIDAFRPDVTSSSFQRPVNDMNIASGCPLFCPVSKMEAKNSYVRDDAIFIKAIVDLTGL

B1: traf2_out_11_169_858 (protein)
chain: EEKEFNRKLIDKALELNDKAKKELEEFALKLAKEAGLDVEEVKKIFEENKNKSLSALASALIKYFKSKGEEKNAQAILEKHEELKDKINKEMSAFIKELK
B2: traf2_out_11_155_690 (protein)
chain: TKERELNNELVDRNLAVGDALKAQIDAIAAAAAAAHPAHAAEIEKVAADAAKYSARTYAGIMAATFERLGLADEAAQVRALLAAAQAERNAILKEIEAKK
B3: traf2_out_17_162_1539 (protein)
chain: SPTEERLEELERRLERLEEELKKLKEKSEKLDELSKEEISDLLVEVSELRREALRLAEELRRLAEETGSPRARELEERAERLAEELQRIANKIYKELEKK
B4: traf2_out_1_27_1009 (protein)
chain: SDAEFRALLAEADRALGSLSPEEALAAAAEAVRRALELGIGEARHLAVVLILSQADDELAEALLEAIRAVLREAGVSEEEIAEIERRAESGRARLKKALA
B5: traf2_out_6_156_2406 (protein)
chain: MIEEIEKETLEEIKELLKKLAAASEEKKIAYISKIAGTFYRGLQKLREAGASVEELEEFGKRVLEKIKEWLEELGLDQDTKDLILSSLNAVYDVALEEAK
B6: traf2_out_13_95_1186 (protein)
chain: EEEKTKKLREETNKIADKLIDTTEELAKEIEKETGDPTYKERILSALNRYGVRAAIHLIKELAKENPEYKEIFEEAAEKLEAARREAGKEVAKIEKEIEE
B7: traf2_out_20_3_2236 (protein)
chain: EELKKKAKEALEEARKLLEQAEPLLEPEDAAKLRELLEKAEEYFETDYKDALVELSALKRAALAAAERARAAGDEETAALLEELADATNKAMHYIYLIIE
B8: traf2_out_17_178_1708 (protein)
chain: TKEEARKRISEATDEMIDLAEEAAARLLEIAEREGSLSPEELAALRRARRLGSARTTIALMERAIPRLRSAEEVRALLEELKARYRELSKEIAEALEKYE
B9: traf2_out_18_3_1945 (protein)
chain: KEEKLKELSEKIDKVYDDAAEYILKKAKELAEKDPRFKPALEEVEKLIKQGHLFGQLANTLIDHLKKLGYEEEAAEVEAYYSEKSKEISKLLDEYEKIRK
B10: traf2_out_14_17_1292 (protein)
chain: EIIKELEKIAKTAKELAKKLPELKLELGQLARKAESALVLAEMYEEDPSYKPELLQALKNLLKLAKEVAEKVKPISEEAVKELNKIAETAKKILEKVEKE
B11: traf2_out_16_171_1442 (protein)
chain: MEKEKEEELKKEIEEEAARLIARMETAVEMTPLISKETGLTVEQIAAGFRSTMTDRIAAFREHFLKKAADMSEEVKEFIEEQVARLEAALDAAVAAILAK
B12: traf2_out_11_169_782 (protein)
chain: KEKEFNRKLNDFALEQNDEAKEKLKEFALKLAEEEGLDVEEIKAIFEANKGKSLSAIASALIDYYRSKGREDAAEEVLEKYEELKEEINKKVTEKIKELE
B13: traf2_out_15_181_1334 (protein)
chain: MTPEEKAAKVAELKKQIEEKKAEAEKYLKEADAVKDTDLTDALVYYSEAKRKYLEIAELYRKIAELTGDEATYAKKIEEAEKKAEELNKKMNEIYKKIEA
B14: traf2_out_20_3_2235 (protein)
chain: EELKEKLKEELKRAEKLLEEIAPRLPPEDAARLRALLEEAKKYFEKDYKDALVELSALRRAALEAAERARAAGDEETAALLEELADEVNKAMHYAYKIIE
B15: traf2_out_20_154_1995 (protein)
chain: PSDEEIDEVSDKLVEASAKRRAALIAIEMLKNPERREEILAEAREHYKNDEVMMAALDEAVAAIEAGATLEEFEAKAEEYQKKAEELGDKLEELLAERRA
B16: traf2_out_20_3_2093 (protein)
chain: EELLEELRRALERAEKLLKEAIELADPETAARLKELLARLKEARELPLEDQLVALSEVRRELLRLAEEARAAGREELAKLLEEAAEEVNRAMNLAYKIIE
B17: traf2_out_15_48_1353 (protein)
chain: ETKKLRETARKVNDLFDATLDAVAEELRALLPELPPELRPLAEAAIREATVRGSINDTIALLDEAIARADPETAARLQALRDRLLATKKEASKLMNETLK
B18: traf2_out_14_166_1281 (protein)
chain: MTEEEIERIKEIVDKLEPLNDAAVARAAAIIEANRDKLSPEDLARLNHLLDIARRNIGSSAINAFLQMAEIFAAAGLEEAAAAFRALAEELQAKLSELNK
B19: traf2_out_20_3_2052 (protein)
chain: EELLEEAEKLRKELEEKIEEIKKLVPPEDAKELEELLKRVEEARKKGLEEELVALSELRRRLLELAERARAEGREEVAELLEEAAELVQKLMNVVYKIIE

Biological target: T1, TRAF2, Q12933
Assay: median log2 fold change of GCK-ALFA target abundance (FLAG IP / Myc IP barcode read proportion) (log2 ratio); each designed protein is fused to an ALFA-tag nanobody in HEK293 cells to bring the named protein to FLAG-tagged glucokinase (GCK); Myc marks an untargeted standard; higher = target protein stabilised (more abundant)
Conditions: target protein: 3xFLAG-MCP-GCK-ALFA reporter; HEK293 landing pad (RPLP)
Outline: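 Sequencing of reverse-transcribed, amplified circular RNA barcodes from anti-FLAG and anti-Myc immunoprecipitates provided the readout for an ALFA-nanobody-fused binder library recombined into HEK293 landing-pad cells. Those cells were induced with 2 μg mL^−1 doxycycline, transfected with a plasmid expressing a FLAG-tagged target and a Myc-tagged standard, and lysed after 48 h. Target abundance is the per-binder median log2 ratio of FLAG to Myc barcode read proportions. Only barcodes at a proportion of ≥10^−7 in both replicates and binders with ≥3 barcodes per replicate were kept, with a 10^−6 pseudocount added before the two replicates were pooled.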

| Binder | median log2 fold change |
| --- | --- |
| B1 | -0.248 |
| B2 | 0.0844 |
| B3 | 0.204 |
| B4 | 0.0103 |
| B5 | 0.0253 |
| B6 | 0.217 |
| B7 | 0.298 |
| B8 | -0.184 |
| B9 | -0.138 |
| B10 | 0.148 |
| B11 | 0.155 |
| B12 | 0.157 |
| B13 | -0.0159 |
| B14 | 0.39 |
| B15 | 0.276 |
| B16 | -0.00848 |
| B17 | 0.138 |
| B18 | 0.323 |
| B19 | 0.18 |
